Measured values reported in paper doi:10.1101/2023.05.22.541714 (bioRxiv, 2023).

Target: the molecule itself
Assay: cryo-EM structure

B1: human vimentin ΔT ([…]) (domain or fragment)
chain: not shown
- binding result: binds
